Assay results from patent US12286632B2, “Rationally-designed synthetic peptide shuttle agents for delivering polypeptide cargos from an extracellular space to the cytosol and/or nucleus of a target eukaryotic cell, uses thereof, methods and kits relating to same” (Feldan Bio Inc., priority 2016, dated 2025).
For part of these data: Not every detail of the peptide structures is certain; ends, links or a residue may be inferred. For part of these data: At least one compound was matched to its structure with a doubt left. Ends that are not written are not given here.

Experiments:
THP-1 cells = assay: GFP-NLS protein transduction assay (flow cytometry: Pos cells %, viability %, relative fluorescence intensity; microscopy); conditions: THP-1
HeLa cells [1] = assay: as above; conditions: for Cell viability (%) (± St Dev.; n = 3): Table 10.2; for FIG. 21A Mean (%) cell with GFP signal (n = 3): Table 8.1
HeLa cells [2] = assay: Plasmid DNA (pEGFP-C1) transfection by peptides (% cells with GFP signal, cell viability); conditions: for Mean % cells with GFP signal (±St. Dev.; n = 3): DNA transfection in HeLa cells using peptides, pEGFP-C1 plasmid
[3] = Table 10.1, Protocol B, HeLa, shuttle 50 μM, GFP-NLS 5 μM, 10 seconds

With CC[C@H](C)[C@H](NC(=O)[C@H](CCCCN)NC(=O)[C@H](CCCCN)NC(=O)[C@H](Cc1ccccc1)NC(=O)[C@H](CC(C)C)NC(=O)[C@H](CCCCN)NC(=O)[C@H](Cc1c[nH]c2ccccc12)NC(=O)[C@H](CCCCN)NC(=O)[C@H](Cc1c[nH]cn1)NC(=O)[C@H](Cc1c[nH]cn1)NC(=O)[C@H](Cc1c[nH]cn1)NC(=O)[C@H](Cc1c[nH]cn1)NC(=O)[C@H](Cc1c[nH]cn1)NC(=O)[C@@H](N)Cc1c[nH]cn1)C(=O)NCC(=O)N[C@@H](C)C(=O)N[C@H](C(=O)N[C@@H](CC(C)C)C(=O)N[C@@H](CCCCN)C(=O)N[C@H](C(=O)N[C@@H](CC(C)C)C(=O)N[C@H](C(=O)N[C@H](C(=O)NCC(=O)N[C@@H](Cc1ccc(O)cc1)C(=O)N[C@@H](C)C(=O)N[C@@H](CCCNC(=N)N)C(=O)N[C@@H](C)C(=O)N[C@@H](C)C(=O)N[C@@H](C)C(=O)N[C@@H](CCCNC(=N)N)C(=O)N[C@@H](CCC(N)=O)C(=O)N[C@@H](C)C(=O)N[C@@H](CCCNC(=N)N)C(=O)N[C@@H](C)C(=O)O)[C@@H](C)O)[C@@H](C)O)C(C)C)C(C)C [His-CM18-PTD4] the “Cell viability (%) (±St. Dev.; n = 3)” value (THP-1 cells; Protocol C, 1 μM shuttle, 5 μM GFP-NLS, incubation 15 sec) was 90 ± 3.0%, the “Cell viability (%) (±St. Dev.; n = 3)” value (THP-1 cells; Protocol C, 1 μM shuttle, 5 μM GFP-NLS, incubation 30 sec) was 89 ± 1.1% and the “Cell viability (%) (±St. Dev.; n = 3)” value (THP-1 cells; Protocol C, 1 μM shuttle, 5 μM GFP-NLS, incubation 60 sec) was 85.3 ± 3.6%. The “Cell viability (%) (±St. Dev.; n = 3)” value (THP-1 cells; Protocol C, 1 μM shuttle, 5 μM GFP-NLS, incubation 120 sec) was 74.3 ± 3.2%, the “Cell viability (%) (±St. Dev.; n = 3)” value (THP-1 cells; serum, daily 150 min, 0.5 μM shuttle, 5 μM GFP-NLS, 1 day exposure) was 98.2 ± 2.4% and the “Cell viability (%) (±St. Dev.; n = 3)” value (THP-1 cells; serum, daily 150 min, 0.5 μM shuttle, 5 μM GFP-NLS, 3 days exposure) was 84.3 ± 3.8%. The “Cell viability (%) (±St. Dev.; n = 3)” value (THP-1 cells; serum, daily 150 min, 0.8 μM shuttle, 1 μM GFP-NLS, 1 day exposure) was 98.4 ± 6.4%, the “Cell viability (%) (±St. Dev.; n = 3)” value (THP-1 cells; serum, daily 150 min, 0.8 μM shuttle, 1 μM GFP-NLS, 3 days exposure) was 80.6 ± 4.6% and the “Cell viability (%) (±St. Dev.; n = 3)” value (THP-1 cells; serum, daily 150 min, 0.8 μM shuttle, 2.5 μM GFP-NLS, 1 day exposure) was 92.3 ± 1.9%. The “Cell viability (%) (±St. Dev.; n = 3)” value (THP-1 cells; serum, daily 150 min, 0.8 μM shuttle, 2.5 μM GFP-NLS, 3 days exposure) was 68.5 ± 2.2%, the “Cell viability (%) (±St. Dev.; n = 3)” value (THP-1 cells; Table 9.3, Protocol A, shuttle 1 μM, GFP-NLS 5 μM, 1 hour) was 96.9 ± 3.6% and the “Cell viability (%) (±St. Dev.; n = 3)” value (THP-1 cells; Table 9.3, Protocol C, shuttle 0.5 μM, GFP-NLS 5 μM, 15 seconds) was 82.1 ± 2.7%. The “Cell viability (%) (±St. Dev.; n = 3)” value (THP-1 cells; Table 9.3, Protocol C, shuttle 5 μM, GFP-NLS 5 μM, 15 seconds) was 64.0 ± 4.1%, the “Cell viability (%) (±St. Dev.; n = 3)” value (HeLa cells [1]; Table 9.1, Protocol A, HeLa, shuttle 10 μM, GFP-NLS 5 μM, 1 hour) was 96.4 ± 2.7% and the “Cell viability (%) (±St. Dev.; n = 3)” value (HeLa cells [1]; Table 9.1, Protocol B, HeLa, shuttle 35 μM, GFP-NLS 5 μM, 10 seconds) was 94.6 ± 0.4%. The “Cell viability (%) (±St. Dev.; n = 3)” value (HeLa cells [1]; Table 9.2, Protocol B, HeLa, shuttle 10 μM, GFP-NLS 5 μM, 10 seconds) was 96.3 ± 2.3%, the “Cell viability (%) (±St. Dev.; n = 3)” value (HeLa cells [1]; Table 9.2, Protocol B, HeLa, shuttle 25 μM, GFP-NLS 5 μM, 10 seconds) was 95.3 ± 3.7% and the “Cell viability (%) (±St. Dev.; n = 3)” value (HeLa cells [1]; Table 9.2, Protocol B, HeLa, shuttle 35 μM, GFP-NLS 5 μM, 10 seconds) was 79.6 ± 5.9%. The “Cell viability (%) (±St. Dev.; n = 3)” value (HeLa cells [1]; Table 9.2, Protocol B, HeLa, shuttle 50 μM, GFP-NLS 5 μM, 10 seconds) was 69.2 ± 2.7%, the “Cell viability (%) (±St. Dev.; n = 3)” value (HeLa cells [1]; [3]) was 92 ± 3.6% and the “Cell viability (%) (± St Dev.; n = 3)” value (HeLa cells [1]; Protocol B, HeLa, shuttle 10 μM, GFP-NLS 5 μM, incubation 1 min.) was 97.6 ± 2.7%. The “Cell viability (%) (± St Dev.; n = 3)” value (HeLa cells [1]; Protocol B, HeLa, shuttle 10 μM, GFP-NLS 5 μM, incubation 2 min.) was 80.9 ± 3.2% and the “Cell viability (%) (± St Dev.; n = 3)” value (HeLa cells [1]; Protocol B, HeLa, shuttle 10 μM, GFP-NLS 5 μM, incubation 5 min.) was 66.2 ± 4.4%.

“HAHHAHHAHKWKLFKKIGAVLKVLTTGYARAAARQARA [3HA-CM18-PTD4]” was tested, and the “Mean % cells with GFP signal (±St. Dev.; n = 3)” value (“Mean % cells with GFP signal” below) (HeLa cells [2]) was 0.09 ± 0.01%.

“HHHAHHHKWKLFKKIGAVLKVLTTGYARAAARQARA [HA-CM18-PTD4]” was tested, and the “Mean % cells with GFP signal” value (HeLa cells [2]) was 0.06 ± 0.0%.

In the case of “HHHHHHHHHHHHKWKLFKKIGAVLKVLTTGYARAAARQARA [12His-CM18-PTD4]”, the “Mean % cells with GFP signal” value (HeLa cells [2]) is reported as 0.18 ± 0.01%.

With “HHHHHHKWKIARAFARSLKKLYARLLARQAKTGHHHHHH [FSD15]” the “Mean % cells with GFP signal” value (HeLa cells [2]) was 0.18 ± 0.02% and the “Mean % cells with GFP signal” value (HeLa cells [1]; Table B2, HeLa cells, GFP-NLS cargo) was 54.97 ± 4.28%.

With “HHHHHHKWKLFKKIGAVLKVLTTGGWTLNSAGYLLKINLKALAALAKKIL [His-CM18-Transportan (TPT)]” the “Mean % cells with GFP signal” value (HeLa cells [1]; [3]) was 33.2 ± 2.8%.

“HHHHHHKWKLFKKIGAVLKVLTTGGWTLNSAGYLLKINLKALAALAKKIL [His-CM18-Transportan]” was tested, and the “Mean % cells with GFP signal” value (HeLa cells [2]) was 0.55 ± 0.01%.

In the case of “HHHHHHKWKLFKKIGAVLKVLTTGRRRRRRRRR [His-CM18-9Arg]”, the “Mean % cells with GFP signal” value (HeLa cells [2]) is reported as 0.02 ± 00.0% and the “Mean % cells with GFP signal” value (HeLa cells [1]; [3]) is reported as 57.2 ± 3.9%.

With “HHHHHHKWKLFKKIGAVLKVLTTGYARAAARQARAHHHHHH [His-CM18-PTD4-His]” the “Mean % cells with GFP signal” value (HeLa cells [2]) was 0.34 ± 0.03% and the “DNA plasmid transfection efficiency (cells with GFP signal)” value (HeLa cells [2]; pEGFP-C1, Table 7.2) was 0.34%.

“HHHHHHKWKLFKKIGAVLKVLTTGYGRKKRRQRRR [His-CM18-TAT]” was tested, and the “Mean % cells with GFP signal” value (HeLa cells [2]) was 0.05 ± 0.01%, the “GFP-NLS nuclear fluorescence (microscopy)” value (HeLa cells [1]; GFP-NLS 5 μM, shuttle 5 μM, 1 hour, data not shown) was “successful delivery of GFP-NLS to the nucleus” and the “FIG. 21A Mean (%) cell with GFP signal (n = 3)” value (from here on “FIG. 21A Mean (%) cell”) (HeLa cells [1]; GFP-NLS 5 μM, HeLa, 1 hour, shuttle 1 μM) was 8.45%. The “FIG. 21A Mean (%) cell” value (HeLa cells [1]; GFP-NLS 5 μM, HeLa, 1 hour, shuttle 3 μM) was 29.58%, the “FIG. 21A Mean (%) cell” value (HeLa cells [1]; GFP-NLS 5 μM, HeLa, 1 hour, shuttle 5 μM) was 41.38% and the “Mean % cells with GFP signal” value (HeLa cells [1]; [3]) was 55.5 ± 3.6%. For the same compound, the “increase of GFP-NLS transduction efficiency as compared to CM18-TAT-Cys” value (HeLa cells [1]; at 3 μM and 5 μM, GFP-NLS 5 μM, 1 hour) was “about 2 fold”.

With “HHHKWKLFKKIGAVLKVLTTGYARAAARQARA [3His-CM18-PTD4]” the “Mean % cells with GFP signal” value (HeLa cells [2]) was 0.06 ± 0.01%.
